Data as given in the supplement of paper PMC12889115.
This is one part of the list. Many values rest on one well or one pass, so single values are uncertain.

system: Salmonella enterica serovar Typhimurium SL1344; assay: bacterial growth OD600 after 18 h in MHB with 0.5 µg/mL polymyxin B; higher = more bacterial growth (less inhibition); conditions: 25 µM; polymyxin B 0.5 µg/mL; system: broth
Procedure: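 Secondary screen of the 553 primary hits at 25 µM. (i) S. Typhimurium SL1344 grown in Mueller-Hinton broth with 0.5 µg/mL polymyxin B, OD600 read after 18 h. (ii) SAFIRE assay: RAW 264.7 macrophages infected with S. Typhimurium sifB::gfp (MOI 30); compound added 2 h post-infection; cells fixed at 18 h; GFP-positive pixel fraction per macrophage imaged by confocal microscopy and expressed as % of DMSO control.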
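Further: polymyxin B level opens the outer membrane while sparing the inner membrane, with novobiocin wells as reference growth inhibitor.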

Row | Compound | bacterial growth OD600
1 | CC#CCN1C(=O)NC(CCCc2ccccc2)(C2CCN(C(=O)/C=C/c3ccccn3)CC2)C1=O (stereo not given) | 0
2 | CSc1ccc(C(=O)N2CCC(C(Cc3ccc(F)cc3F)N(C)C(=O)C3CC3)CC2)cc1 (stereo not given) | -0.015
3 | Cc1ccccc1C(NC1CCN(c2ccc(NC(=O)c3ccccc3F)cc2)CC1)c1ccncc1 (stereo not given) | 0.463
4 | O=C1CCC(CCNCc2cc3c(cc2Cl)OCO3)N1CC1C2CC3CC(C2)CC1C3 (stereo not given) | 0.048
5 | CN(Cc1ccc2nccnc2c1)C(=O)CC1(c2ccc(-c3ccccc3)cc2)CC(=O)N(C)C1=O (stereo not given) | 0.003
6 | O=C(CCC1CCCN(Cc2cccc(O)c2)C1)NCc1ccccc1Cl (stereo not given) | 0.141
7 | COCC1CCN(C(=O)CC(c2ccccc2)c2cccc(Cl)c2)CC1 (stereo not given) | 0.004
8 | CN(C(=O)CC(c1ccccc1)c1ccccc1Cl)C1CCOCC1 (stereo not given) | 0.005
9 | COc1ccc(CC2(CCC(=O)N3CCC(Oc4ccc(F)cc4)CC3)CCC(=O)N2)c(F)c1 (stereo not given) | 0.059
10 | CCC(=O)N(Cc1cc2c(OC)ccc(OC)c2nc1N1CCOCC1)CC1COc2ccccc2O1 (stereo not given) | 0.008
11 | CCn1ccnc1CN1CCCC1C(=O)Nc1ccc(-c2cccc(F)c2)cc1 (stereo not given) | 0.001
12 | COc1ccc(CC2(CCC(=O)N3CCN(c4cc(Cl)ccc4C)CC3)CCC(=O)N2)c(F)c1 (stereo not given) | -0.03
13 | c1ccc(-c2nc(CNc3nc4nonc4nc3NC3CC3)cs2)cc1 | -0.001
14 | COc1ccc(CCC(=O)N2CCC(CO)(Cc3ccc(Cl)cc3)CC2)cc1 | 0.003
15 | CCOc1ccc2nc(N3CCC(NC(Cn4cccn4)c4ccccc4)CC3)nc(C)c2c1 (stereo not given) | -0.023
16 | COc1cc(CN2CCOc3ccc(C(O)CCc4ccccc4)cc3C2)cc(OC)c1 (stereo not given) | -0.008
17 | O=C(c1cccc(N2CCCC2=O)c1)N(Cc1ccncc1)Cc1cccc(OCCc2ccc(F)cc2)c1 | -0.008
18 | CCOC(=O)C1(Cc2ccc(F)cc2)CCCN(C(=O)c2cn3c(C)cccc3n2)C1 (stereo not given) | 0.551
19 | CCN(Cc1ccccc1)c1nc(CNC(=O)Cn2nc(C)c3ccccc3c2=O)nc2ccccc12 | 0.004
20 | CCOC(=O)N1CCC(N2Cc3cc(C)ccc3OC(c3ccsc3)C2)CC1 (stereo not given) | 0.187

Row | Compound | bacterial growth OD600
21 | OCCOc1cccc(CN2Cc3ccccc3OC(c3ccccc3F)C2)c1 (stereo not given) | -0.013
22 | Cc1ccc(-c2nnc(CCC(=O)NCCc3cccc4ccccc34)o2)s1 | -0.004
23 | O=C(CC1(c2cccc(C(F)(F)F)c2)CC(=O)N(C2CC2)C1=O)N(CC1CCC1)CC1CCCO1 (stereo not given) | 0.006
24 | CN(CCc1ccccn1)C(=O)c1csc2nc(-c3ccc(Cl)cc3)cn12 | 0.454
25 | CCOC(=O)C1(Cc2ccccc2C)CCCN(C(=O)c2cc(C3CC3)n[nH]2)C1 (stereo not given) | 0.003
26 | Cc1c(C(=O)NCC2OCCc3ccccc32)cnn1-c1ncc2c(n1)-c1ccccc1CCC2 (stereo not given) | 0
27 | COc1ccccc1CCC(=O)Nc1cnn(CC(=O)NC(C)c2nc(-c3ccccc3)no2)c1 (stereo not given) | 0.442
28 | COc1ccccc1CN1CCc2c([nH]c3ccccc23)C1c1cccc(O)c1 (stereo not given) | 0.001
29 | CC(=O)c1ccc(F)c(-c2cc(C)cc3c2OC(CNC(=O)c2ccccc2F)C3)c1 (stereo not given) | 0.015
30 | O=C(c1cccc(F)c1)N(Cc1ccncc1)Cc1cccc(OCCc2ccc(F)cc2)c1 | -0.007
31 | CCN(Cc1ccccc1)C(=O)CC1(c2cccc(C(F)(F)F)c2)CC(=O)N(C2CC2)C1=O (stereo not given) | -0.015
32 | COc1cc(CN2CCOc3ccc(CN4CCc5sccc5C4)cc3C2)cc2c1OCO2 | 0.002
33 | COc1cc(C(=O)N(Cc2cccc(OCCc3cccs3)c2)C2CCCC2)cc(OC)c1OC | 0.004
34 | C=CCC(=O)N1CCCC1C(=O)Nc1ccc(-c2cccc(OC)c2)cc1 (stereo not given) | 0.346
35 | OCC1(Cc2cccc(Cl)c2)CCCN(Cc2ccc(F)c(F)c2)C1 (stereo not given) | 0.001
36 | Cc1ccccc1-c1cnc(-c2ccncc2)nc1C1CCCN(Cc2ccc(F)c(F)c2)C1 (stereo not given) | -0.003
37 | CCN(CC)c1ncccc1CNC(=O)c1cccc(Cl)c1 | 0.631
38 | Cc1ccc(CN2CCCC2C(=O)Nc2cccc(-n3cccn3)c2)s1 (stereo not given) | 0.005
39 | CN1C(=O)CC(CC(=O)N(CC2CC2)CC2CCCO2)(c2ccc(-c3ccccc3)cc2)C1=O (stereo not given) | -0.005
40 | CCN1C(=O)CC(CC(=O)N(CC2CCC2)CC2CCCO2)(c2cccc(C(F)(F)F)c2)C1=O (stereo not given) | 0.004
